Measurements: PMC3040723, “Three hydrophobic amino acids in Escherichia coli HscB make the greatest contribution to the stability of the HscB-IscU complex” (BMC Biochemistry, 2011)
Changes are numbered by the printed parent chain.

Columns and labels:
Experiment in all cases: ITC; 2.5-4 mM apo-IscU (injection syringe) titrated into 0.25-0.4 mM HscB (sample cell); 25 °C; 50 mM HEPES pH 7.5, 150 mM NaCl, 4 mM TCEP
Details in all cases: both partners purified
HscB(E100A) = molecular target: T1, HscB(E100A) (E. coli, UniProt P0A6L9 1-171, E100A)
T1 construct: HscB, Escherichia coli, single alanine substitution; Uniformly 15N-labelled for the NMR experiments; source: Escherichia coli, purified (DEAE-cellulose, size exclusion chromatography)
T1 sequence (looked up): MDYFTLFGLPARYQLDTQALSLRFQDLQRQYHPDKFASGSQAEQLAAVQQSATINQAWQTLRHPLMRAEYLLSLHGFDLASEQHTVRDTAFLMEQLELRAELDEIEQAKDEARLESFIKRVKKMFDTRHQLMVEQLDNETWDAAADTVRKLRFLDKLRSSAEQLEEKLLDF

HscB(F153A) = molecular target: T2, HscB(F153A) (E. coli, UniProt P0A6L9 1-171, F153A)
T2 construct: HscB, Escherichia coli, single alanine substitution; source: Escherichia coli, purified (DEAE-cellulose, size exclusion chromatography)
T2 sequence (looked up): T1 sequence (looked up) with A100E, F153A

HscB(K156A) = molecular target: T3, HscB(K156A) (E. coli, UniProt P0A6L9 1-171, K156A)
T3 construct: HscB, Escherichia coli, single alanine substitution; source: Escherichia coli, purified (DEAE-cellulose, size exclusion chromatography)
T3 sequence (looked up): T1 sequence (looked up) with A100E, K156A

HscB(E97A, E100A, E104A) = molecular target: T4, HscB(E97A, E100A, E104A) (E. coli, UniProt P0A6L9 1-171, E97A | E100A | E104A)
T4 construct: HscB, Escherichia coli, triple alanine substitution; also called (E97A, E100A, E104A) substitution; source: Escherichia coli, purified (DEAE-cellulose, size exclusion chromatography)
T4 sequence (looked up): T1 sequence (looked up) with E97A, E104A

HscB(R87A) = molecular target: T5, HscB(R87A) (E. coli, UniProt P0A6L9 1-171, R87A)
T5 construct: HscB, Escherichia coli, single alanine substitution; source: Escherichia coli, purified (DEAE-cellulose, size exclusion chromatography)
T5 sequence (looked up): T1 sequence (looked up) with R87A, A100E

HscB(T89A) = molecular target: T6, HscB(T89A) (E. coli, UniProt P0A6L9 1-171, T89A)
T6 construct: HscB, Escherichia coli, single alanine substitution; source: Escherichia coli, purified (DEAE-cellulose, size exclusion chromatography)
T6 sequence (looked up): T1 sequence (looked up) with T89A, A100E

HscB(L92A) = molecular target: T7, HscB(L92A) (E. coli, UniProt P0A6L9 1-171, L92A)
T7 construct: HscB, Escherichia coli, single alanine substitution; source: Escherichia coli, purified (DEAE-cellulose, size exclusion chromatography)
T7 sequence (looked up): T1 sequence (looked up) with L92A, A100E

HscB(L96A) = molecular target: T8, HscB(L96A) (E. coli, UniProt P0A6L9 1-171, L96A)
T8 construct: HscB, Escherichia coli, single alanine substitution; Uniformly 15N-labelled for the NMR experiments; source: Escherichia coli, purified (DEAE-cellulose, size exclusion chromatography)
T8 sequence (looked up): T1 sequence (looked up) with L96A, A100E

HscB(R99A) = molecular target: T9, HscB(R99A) (E. coli, UniProt P0A6L9 1-171, R99A)
T9 construct: HscB, Escherichia coli, single alanine substitution; source: Escherichia coli, purified (DEAE-cellulose, size exclusion chromatography)
T9 sequence (looked up): T1 sequence (looked up) with R99A, A100E

B1: apo-IscU (natural protein, E. coli, UniProt P0ACD4 1-128, looked up)
chain: MAYSEKVIDHYENPRNVGSFDNNDENVGSGMVGAPACGDVMKLQIKVNDEGIIEDARFKTYGCGSAIASSSLVTEWVKGKSLDEAQAIKNTDIAEELELPPVKIHCSILAEDAIKAAIADYKSKREAK
notes: No tag is mentioned; purified by ion exchange and gel filtration, so probably untagged whole protein; source: Escherichia coli, purified (DEAE-cellulose, DEAE-Biogel, size exclusion chromatography)
- Kd (HscB(E100A)): ~42 µM
- Kd (HscB(F153A)): ~200 µM
- Kd (HscB(K156A)): 4 to 17 µM
- Kd (HscB(E97A, E100A, E104A)): ~30 µM
- Kd (HscB(R87A)): ~36 µM
- Kd (HscB(T89A)): 4 to 17 µM
- Kd (HscB(L92A)): ~200 µM
- Kd (HscB(L96A)): ~200 µM
- Kd (HscB(R99A)): ~53 µM
